From the RNAGym collection of RNA variant scans (doi:10.7554/elife.90254)
Read counts are not given, so values of variants with three or more changes are uncertain.

B1: LINE1-full (parent)
chain: UACGUAGGUGGUUUUCCCCUGAUAGUGCUAAGGGGGCCUGGAAGUUUGGACUGGGCAGAGCUCAACACAGCGUGGCAAAGUGGCUGUGGCUAGACUGCCUCUCUGGAUUCCUCGUCACUCAGCAGGGCAUCUCUGAGAGAAAUGCC

Variants of: B1
Experiment: self-cleavage, relative activity (ratio to wild type); higher = more cleavage; in vitro, sequencing; the parent is a self-cleaving ribozyme

| Variant | self-cleavage |
| --- | --- |
| UACGUAGGUGGUUUUCCCCUGAUAGCGCUAAGGGGGCCUGAAAGUUUGGACUGGGCAGGGCUCAACACAGCGUGGCAAAGUGGCUGUGGCUAGACUGCCUCUCUGGAUUCCUCGUCCCUCAGCAGGGCAUCUCUGAGAGAAAUGCC [U26C G41A A59G A117C] | 0.04 |
| UACGUAGGUGGUUUUCCCCUGAUAGCGCUAAGGGAGCCUGGAAGUUCGGACUGGGCAGAGCUCAACUCAGCGUGGCAAAGUGGCUGUGGCUAGACUGCCUCUCUGGAUUCCUCGUCACUCAGCAGGGCGUCUCCGAGAGAAAUGCC [U26C G35A U47C A67U A129G U134C] | 0.11 |
| UACGUAGGUGGUUUUCCCCUGAUAGCGCUAAGGGGGCCUGGAAGUUUGGACUGGGCAGAGCUCAACUCAGCGUGGCAAAGUGGCUGUGGCUAGACUGCCUCUCCGGAUUCCUCGUCACUCAGCAGGGCGUCUCUGAGAGAAACGCC [U26C A67U U104C A129G U143C] | 0 |
| UACGUAGGUGGUUUUCCCCUGAUAGCGCUAAGGGGGCCUGGAAGUUUGGACUGGGCAGAGCUCAACACGGCGUGGCAUAGUGGCUGUGGCUAGACUGCCCCUCUGGAUUCCCCGUCACUCAGCAGGGCAUCUCUGAGAGAAAUGCC [U26C A69G A78U U100C U112C] | 0 |
| UACGUAGGUGGUUUUCCCCUGAUAGCGCUAAGGGGGCCUGGAAGUUUGGACUGGGCAGAGCUCAACACAGCGUGGCAAAGUGGCUGUGGCUAGACUGCCUCUCUGGAUUCCUCGUUACUCAGCAGGGCAUCUCUGAGAGAAUUGCC [U26C C116U A142U] | 1.22 |
| UACGUAGGUGGUUUUCCCCUGAUAGCGCUAAGGGGGCCUGGAAGUUUGGACUGGGCAGAGCUCAACUCAGCGUGGCAAAGUGGCUGUGGCUAGACUGCCUCUCUGGGUUCCUCGUCACUCAGCAGGGCAUCUCUGAGAGAAAUGCC [U26C A67U A107G] | 0.06 |
| UACGUAGGUGGUUUUCCCCUGAUAGCGCUAAGGGUGCCUGGAAGUUAGGACUGGGCGGAGCUCAACACAGCGUGGCAAAGUGGCUGUGGCUAGACUGCCUCUCUGGAUUCCUCGACACUCAGCAGGGCAUCUCUGAGAGAAAUGCC [U26C G35U U47A A57G U115A] | 1.21 |
| UACGUAGGUGGUUUUCCCCUGAUAGCGCUAAGGGGGCCUGGAAGUUUGGACUGGGCAGAGCUCAACACAGCGUGGCAGAGUGGCUGUGGCUAGACUGCCUCCCUGGAUUCCUCGUCACUCAGCAGGGCAUCUCUGAGAGAAAUGCC [U26C A78G U102C] | 0 |
| UACGUAGGUGGUUUUCCCCUGAUAGCGCUAAGGGGGCCUGGAAGUUUGGACUGUGCAGAGCUCAACACAGCGUGGCAAAUUGGCUGUGGCUAGACUGCCUCUCUGGAUUCCUCGUCACUCAGCAGGGCAUCUCUGAGAGAAAUGCC [U26C G54U G80U] | 0.89 |
| UACGUAGGUGGUUUUCCCCUGAUAGCGCUAAGGGGGCCUGGAAGUUUGAACUGGGCAGAGCUCAACACAGCGUGGCAGAGUGGCUGUGGCUAGACCGCCUCUCUGGAUUCCUCGUCACUCAGCAGGGCAUCUCUGUGAGAAAUGCC [U26C G49A A78G U96C A136U] | 0.13 |
| UACGUAGGUGGUUUUCCCCUGAUAGCGCUAAGGGGGCACGGAAGUAUGGACUGGGCAGAGCUCAACACAGCGUGGCGAAGUGGCUGUGGCUAGACUGCCUCUCUGGAUUCCUCGUCACUCAGCAGGGCAUCUCUGAGAGAAAUGCC [U26C C38A U39C U46A A77G] | 1.56 |
| UACGUAGGUGGUUUUCCCCUGAUAGCGCUAAGGGGGCCUGGAAGUUUGGACUGGGCAGAGCUCAUCUCAGCGGGGCAGAGUGGCUGUGGCUAGACUGCCUCUCUGGAUUCCUCGUCACUCAGCAGGGCAUCUCUGAGAGAAAUGCC [U26C A65U A67U U73G A78G] | 0.08 |
| UACGUAGGUGGUUUUCCCCUGAUAGCGCUAAGGGGGCCUGGAAGUUUGUACUGGGCAGAGCUCAACACAGCGUGGCAAGGUGGCUGUGGCUAGACUGCCUCUCUGGAUUCCUCGUCACUCAGCAGGGCAUCUCUGAGAGAAAUGCC [U26C G49U A79G] | 0.71 |
| UACGUAGGUGGUUUUCCCCUGAUAGCGCUAAGGGGGCCUGGAAGUUUGGACUGGGCAGAGCUCAACACAGCGUGGCUAAGUGGUUGUGGCUAGACUGCCUCUCUGGAUUCCUCGUCACUCAGCAGGGCAUCUCUGAGAGAAAUGCC [U26C A77U C84U] | 0.05 |
| UACGUAGGUGGUUUUCCCCUGAUAGCGCUAAGGGGGCUUGGAAGCUUGGACCGGGCGGAGCUCAACACAGCGUGGCAAAGUGGCUGUGGCUAGACUGCCUCUCUGGAUUCCUCGUCACUCAGCAGGGCAUCUCUGAGAGAAAUGCC [U26C C38U U45C U52C A57G] | 0.92 |
| UACGUAGGUGGUUUUCCCCUGAUAGCGCUAAGGGGGGCUGGAAGUUUGGACUGGGCAGAGCUCAACACAGCGUGGCUAAGUGGCUGUGGCUAGACUGCCUCUCUGGGUUCCUCGUCACUCAGCAGGGCAUCUCUGAGAGAAAUGCU [U26C C37G A77U A107G C146U] | 0.88 |
| UACGUAGGUGGUUUUCCCCUGAUAGCGCUAAGGGGGCCUGGAAGUUUGGACUGGGCAGAGCUCAACACAGCGUGGCAGUGUGGCUGUGGCUAGACUGCCUCUCUGGAUUCCUCGUCACUCAGCAGGGCAUCUCUGAGAGAAAUGCC [U26C A78G A79U] | 0.88 |
| UACGUAGGUGGUUUUCCCCUGAUAGCGCUAAGGGGGCAUGGAAGUUUGGACUGGGCAGAGCUCAACACAGCGUGGCAAAGUGGCUGUGGCUAGACUGCCUCUCUGGAUUCCUCGUCACUCAGCUGGGCAUCUCUGAGAGAAAUGCC [U26C C38A A124U] | 0.82 |
| UACGUAGGUGGUUUUCCCCUGAUAGCGCUAAGGGGGCCUGGAAGUUUGGACUGGGCAGAGCUCAACACAGCGUGGCAAAGUGGCUGUGGCUAGGCUGCCUCUCUGGAUUCCUCGUCACUCAGCUGGGUAUCUCUGAGAGAAAUGCC [U26C A94G A124U C128U] | 0.32 |
| UACGUAGGUGGUUUUCCCCUGAUAGCGCUAAGGGGGUCUGGAAGUUUGGACUGGGCGGAGCUCAACACAGCGUGGCAAAGUGGCGGUGGCUAGACUGCCUCUCUGGAUUCCUCGUCACUCAGCAGGGCAUCUCUGAGAGAAAUGCC [U26C C37U A57G U85G] | 0.04 |
